Results taken from the supplement of paper PMC6531468.
Some of the results follow. Values come from read counts of a selection and are noisy. Each score is taken over the longer molecules that contain the sequence shown.

Tested on: IMP3 KH1-4
Test: 6-mer SELEX enrichment z-score vs GST control; IMP3 is the RNA-binding protein IGF2BP3; higher = more enriched by binding
Details: construct: KH1-4 (164-579); SELEX round: R4
Procedure: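 SELEX-seq with GST-tagged IMP3 KH1-4 (Pro164-Lys579) and an N40 RNA pool, round 4. 6-mer z-score of sequence-tag enrichment normalised to the corresponding GST SELEX round; RNA k-mers written as DNA (T for U).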

IMP3 KH1-4, sequence (chain, as listed by the source): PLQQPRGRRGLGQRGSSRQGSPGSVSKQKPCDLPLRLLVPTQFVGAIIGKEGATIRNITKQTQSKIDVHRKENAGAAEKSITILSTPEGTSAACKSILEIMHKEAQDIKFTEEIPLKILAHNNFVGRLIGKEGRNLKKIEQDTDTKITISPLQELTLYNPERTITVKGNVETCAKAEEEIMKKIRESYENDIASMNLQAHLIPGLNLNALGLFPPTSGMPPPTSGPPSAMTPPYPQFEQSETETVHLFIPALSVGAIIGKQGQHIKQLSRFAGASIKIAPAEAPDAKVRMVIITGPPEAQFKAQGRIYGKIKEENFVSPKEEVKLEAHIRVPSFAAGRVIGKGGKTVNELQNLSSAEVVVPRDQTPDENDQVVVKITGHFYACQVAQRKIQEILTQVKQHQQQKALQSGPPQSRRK

Sequence | 6-mer SELEX enrichment z-score
GGTCGG | 1.05
TGGGAT | 0.348
AGGTAT | -0.122
TATTCG | 0.26
TGACTT | 0.082
CTGAGG | -0.133
CTACAG | -0.014
TGGTGG | 0.615
GATCAA | 0.142
TGAATC | 0.151
GACCGT | -0.979
GTGTAG | -1.91
GCCCCT | -0.316
GGTCTC | -0.326
AAAGCG | -3.16
ATTATC | 0.828
TCGTAG | -0.668
CAACTC | -0.809
CGCCCG | -0.947
CACGAG | -2.65

Sequence | 6-mer SELEX enrichment z-score
ATGGCA | 1.53
CCACAA | -0.772
GGACGC | -0.239
GCAATG | 0.585
GATTAA | 1.11
AACAGC | -1.05
GCTACT | -0.093
CGCGTT | -0.865
CCGGCG | -0.78
AGCTTG | -0.612
CGTTGG | -0.389
CGTTGA | -0.986
TCCTGC | -0.464
CCCACG | -1.63
TGAATG | 0.88
GGATAA | 0.624
AACCCT | -1.62
CCCACT | -0.817
AGTAAA | 0.206
TCCACG | -0.328

Tested on: IMP3 RRM1-2
Sequence (chain, as listed by the source): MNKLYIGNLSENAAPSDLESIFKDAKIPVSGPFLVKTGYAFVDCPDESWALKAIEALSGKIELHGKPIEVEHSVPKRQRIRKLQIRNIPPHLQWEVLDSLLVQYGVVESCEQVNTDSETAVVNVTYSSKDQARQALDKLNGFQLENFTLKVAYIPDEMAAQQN
Test: as above
Details: construct: RRM1-2 (1-163); SELEX round: R2
Procedure: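 SELEX-seq with GST-tagged IMP3 RRM1-2 (Met1-Asn163) and an N40 RNA pool, round 2. 6-mer enrichment z-score normalised to GST SELEX. RNA written as DNA (T = U).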

Sequence | 6-mer SELEX enrichment z-score
GGTCGG | 0.469
TGGGAT | 0.233
AGGTAT | 0.241
TATTCG | 0.185
TGACTT | 0.002
CTGAGG | -0.106
CTACAG | 0.526
TGGTGG | 0.473
GATCAA | 0.524
TGAATC | -0.193
GACCGT | -0.84
GTGTAG | -0.015
GCCCCT | -0.339
GGTCTC | 0.518
AAAGCG | -1.29
ATTATC | 0.403
TCGTAG | 0.29
CAACTC | 0.581
CGCCCG | -0.543
CACGAG | -0.089

Sequence | 6-mer SELEX enrichment z-score
ATGGCA | 0.719
CCACAA | 0.83
GGACGC | -0.29
GCAATG | -0.058
GATTAA | -0.784
AACAGC | 0.55
GCTACT | 0.244
CGCGTT | 0.212
CCGGCG | 0.066
AGCTTG | 0.024
CGTTGG | 0.29
CGTTGA | -0.335
TCCTGC | -0.049
CCCACG | -0.737
TGAATG | -0.696
GGATAA | -0.752
AACCCT | -1.12
CCCACT | -0.189
AGTAAA | -0.856
TCCACG | -0.171

Molecular target: IMP3 full-length (UniProt O00425)
UniProt O00425, sequence (O00425 whole entry): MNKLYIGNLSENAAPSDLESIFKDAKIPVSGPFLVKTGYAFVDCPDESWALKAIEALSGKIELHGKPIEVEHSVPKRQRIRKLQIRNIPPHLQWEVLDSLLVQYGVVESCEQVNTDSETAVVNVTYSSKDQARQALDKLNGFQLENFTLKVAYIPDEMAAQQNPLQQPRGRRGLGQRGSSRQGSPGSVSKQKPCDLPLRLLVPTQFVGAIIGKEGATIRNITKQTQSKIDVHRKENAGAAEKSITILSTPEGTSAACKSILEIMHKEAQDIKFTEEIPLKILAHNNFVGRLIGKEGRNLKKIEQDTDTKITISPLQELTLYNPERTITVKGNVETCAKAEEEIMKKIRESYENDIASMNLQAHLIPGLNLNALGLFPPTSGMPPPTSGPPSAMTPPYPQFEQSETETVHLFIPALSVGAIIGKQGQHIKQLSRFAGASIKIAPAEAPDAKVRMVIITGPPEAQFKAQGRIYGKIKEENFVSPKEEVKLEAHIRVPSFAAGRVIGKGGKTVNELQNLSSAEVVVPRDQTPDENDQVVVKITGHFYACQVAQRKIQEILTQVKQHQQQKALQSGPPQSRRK
Test: as above
Details: construct: FL IMP3 (1-579); SELEX round: R4
Procedure: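 SELEX-seq with GST-tagged full-length IMP3 and an N40 RNA pool, round 4. Each 6-mer is scored as an enrichment z-score of sequence tags containing it, normalised to the matching GST SELEX round. RNA written as DNA (T = U).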

Sequence | 6-mer SELEX enrichment z-score
GGTCGG | 1.56
TGGGAT | 0.171
AGGTAT | 0.008
TATTCG | 0.009
TGACTT | -0.454
CTGAGG | -0.021
CTACAG | 0.178
TGGTGG | 0.447
GATCAA | 0.372
TGAATC | -0.265
GACCGT | -0.636
GTGTAG | -1.54
GCCCCT | -0.394
GGTCTC | 0.271
AAAGCG | -2.35
ATTATC | 0.255
TCGTAG | -0.332
CAACTC | -0.122
CGCCCG | -0.287
CACGAG | -0.392

Sequence | 6-mer SELEX enrichment z-score
ATGGCA | 1.72
CCACAA | -0.383
GGACGC | 0.124
GCAATG | 0.393
GATTAA | -0.384
AACAGC | 0.359
GCTACT | -0.06
CGCGTT | -0.215
CCGGCG | 0.665
AGCTTG | -0.257
CGTTGG | 0.038
CGTTGA | -0.655
TCCTGC | -0.466
CCCACG | -1.06
TGAATG | -0.569
GGATAA | -0.315
AACCCT | -1.93
CCCACT | -0.775
AGTAAA | -0.571
TCCACG | -0.266
